In a collection of fitness landscapes (doi:10.1016/j.celrep.2020.107928):
Over roughly 81,000 sequences, “one-hybrid fitness for binding NBS DNA” has its median near -0.1; the highest 2% begin near 0.36. Some of the results follow.

B1: Caulobacter ParB omega fusion; a variant is named by its letters at X, in order, B8GW30 (parent)
chain: MESVVVGEPGMSEGRRGLGRGLSALLGEVDAAPAQAPGEQLGGSREAPIEILQRNPDQPRRTFREEDLEDLSNSIREKGVLQPILVRPSPDTAGEYQIVAGERAWRAAQRAGLKTVPIMVRELDDLAVLEIGIIENVQRADLNVLEEALSYKVLMEKFERTQENIAQTIGKSXSHVANXMRLLXLPDEVQSYLVSGELTAXHARAIAAAADPVALAKQIIEGGLSVRETEALARKAPNLSAGKSKGGRPPRVKDTDTQALESDLSSVLGLDVSIDHRGSTGTLTITYATLEQLDDLCNRLTRGI

Variants of: B1
Test: one-hybrid fitness for binding NBS DNA (the Noc-binding site; scaled: cognate 1, non-cognate 0); higher = stronger binding
Settings: with NBS DNA site
Method in brief: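 On M9-minus-histidine containing 0.1 mM IPTG and 5 mM 3-AT, E. coli USO cells with a HIS3 reporter, site 19 bp from the promoter, grew 48 hours at 37°C to select Caulobacter ParB libraries randomised at four specificity codons. Plasmids from before and after were Illumina-sequenced, with three replicate libraries pooled and variants under 10 reads left out. Fitness is the log change in variant-to-wild-type read ratio, rescaled against cognate and non-cognate.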

| Variant | one-hybrid fitness for binding NBS DNA |
| --- | --- |
| GQTG | ≤ 0.2 |
| RKRM | 0.258 |
| TPWS | ≤ 0.2 |
| FDYL | ≤ 0.2 |
| ERIL | ≤ 0.2 |
| IALL | ≤ 0.2 |
| VVHY | ≤ 0.2 |
| MCLK | ≤ 0.2 |
| AHHD | ≤ 0.2 |
| TGFG | ≤ 0.2 |
| IRYQ | ≤ 0.2 |
| QTSD | ≤ 0.2 |
| CESR | ≤ 0.2 |
| APSC | ≤ 0.2 |
| GTAG | ≤ 0.2 |
| LRMN | ≤ 0.2 |
| QSSL | ≤ 0.2 |
| PFGP | ≤ 0.2 |
| WRIR | ≤ 0.2 |
| AKKS | ≤ 0.2 |
| NSLP | ≤ 0.2 |
| RQMC | ≤ 0.2 |
| MHMR | ≤ 0.2 |
| PIFT | ≤ 0.2 |

| Variant | one-hybrid fitness for binding NBS DNA |
| --- | --- |
| NVSS | ≤ 0.2 |
| KGAR | ≤ 0.2 |
| HAVR | ≤ 0.2 |
| IRTH | ≤ 0.2 |
| VACR | ≤ 0.2 |
| VNHV | ≤ 0.2 |
| DVKF | ≤ 0.2 |
| LTAE | ≤ 0.2 |
| GILT | ≤ 0.2 |
| NHAT | ≤ 0.2 |
| WGFR | ≤ 0.2 |
| HIAC | ≤ 0.2 |
| RQVQ | ≤ 0.2 |
| RVLM | ≤ 0.2 |
| SWSP | ≤ 0.2 |
| PGFL | ≤ 0.2 |
| SLHA | ≤ 0.2 |
| VHHD | ≤ 0.2 |
| RKHT | 0.645 |
| ACRS | ≤ 0.2 |
| SKAY | ≤ 0.2 |
| TMLV | ≤ 0.2 |
| DINP | ≤ 0.2 |
| KTWP | ≤ 0.2 |

| Variant | one-hybrid fitness for binding NBS DNA |
| --- | --- |
| RLMP | ≤ 0.2 |
| HHQA | ≤ 0.2 |
| IMLV | ≤ 0.2 |
| LCQG | ≤ 0.2 |
| AEPM | ≤ 0.2 |
| LGRS | ≤ 0.2 |
| SQVK | ≤ 0.2 |
| GHVC | ≤ 0.2 |
| QASE | ≤ 0.2 |
| DVVY | ≤ 0.2 |
| LCAS | ≤ 0.2 |
| SQGI | ≤ 0.2 |
| WHPR | ≤ 0.2 |
| PTDL | ≤ 0.2 |
| VVNT | ≤ 0.2 |
| NMYK | ≤ 0.2 |
| THYM | ≤ 0.2 |
| SDSR | ≤ 0.2 |
| DYRT | ≤ 0.2 |
| LSVR | ≤ 0.2 |
| KRDI | ≤ 0.2 |
| DPPK | ≤ 0.2 |
| VHMR | ≤ 0.2 |
| RQWT | 0.207 |

| Variant | one-hybrid fitness for binding NBS DNA |
| --- | --- |
| KLQI | ≤ 0.2 |
| AHME | ≤ 0.2 |
| PKCS | ≤ 0.2 |
| TSSQ | 0.493 |
| CFAS | ≤ 0.2 |
| NYWG | ≤ 0.2 |
| RTDA | ≤ 0.2 |
| ALNR | ≤ 0.2 |
| GAFF | ≤ 0.2 |
| TETE | ≤ 0.2 |
| PKHP | ≤ 0.2 |
| LYCE | ≤ 0.2 |
| KPRF | ≤ 0.2 |
| VNAM | ≤ 0.2 |
| LVVL | ≤ 0.2 |
| LAPF | ≤ 0.2 |
| RGPM | ≤ 0.2 |
| KARG | ≤ 0.2 |
| PYGL | ≤ 0.2 |
| CECW | ≤ 0.2 |
| TPNC | ≤ 0.2 |
| GEMY | ≤ 0.2 |
| KHTY | ≤ 0.2 |
| YKGS | ≤ 0.2 |

| Variant | one-hybrid fitness for binding NBS DNA |
| --- | --- |
| QLIN | ≤ 0.2 |
| FIVS | ≤ 0.2 |
| SPWR | ≤ 0.2 |
| YSDE | ≤ 0.2 |
| QWSV | ≤ 0.2 |
| SLNV | ≤ 0.2 |
| YGED | ≤ 0.2 |
| RKLL | ≤ 0.2 |
| NAAI | ≤ 0.2 |
| DRHH | ≤ 0.2 |
| LGRP | ≤ 0.2 |
| CTMP | ≤ 0.2 |
| PYVS | ≤ 0.2 |
| RIWV | ≤ 0.2 |
| PAAF | ≤ 0.2 |
| QLVI | ≤ 0.2 |
| CIRN | ≤ 0.2 |
| WSLT | ≤ 0.2 |
| CWRS | ≤ 0.2 |
| PCTT | ≤ 0.2 |
| RHGN | ≤ 0.2 |
| PNYI | ≤ 0.2 |
| DYPG | ≤ 0.2 |
| KYTC | ≤ 0.2 |

| Variant | one-hybrid fitness for binding NBS DNA |
| --- | --- |
| AFWS | ≤ 0.2 |
| PVFS | ≤ 0.2 |
| GPDR | ≤ 0.2 |
| NLEN | ≤ 0.2 |
| FNLG | ≤ 0.2 |
| TMKH | ≤ 0.2 |
| LFES | ≤ 0.2 |
| KDID | ≤ 0.2 |
| KVEV | ≤ 0.2 |
| DTRN | ≤ 0.2 |
| SCQW | ≤ 0.2 |
| IMKG | ≤ 0.2 |
| KSIE | ≤ 0.2 |
| RHFV | ≤ 0.2 |
| SSKL | ≤ 0.2 |
| MLVT | ≤ 0.2 |
| RPPA | ≤ 0.2 |
| SWSC | ≤ 0.2 |
| AEPY | ≤ 0.2 |
| RKRG | 0.238 |
| LYKF | ≤ 0.2 |
| HACC | ≤ 0.2 |
| GSVW | ≤ 0.2 |
| ILKW | ≤ 0.2 |

| Variant | one-hybrid fitness for binding NBS DNA |
| --- | --- |
| EYWV | ≤ 0.2 |
| IRAC | ≤ 0.2 |
| QDQF | ≤ 0.2 |
| EAKC | ≤ 0.2 |
| VDLS | ≤ 0.2 |
| ILNL | ≤ 0.2 |
| YART | ≤ 0.2 |
| AKDP | ≤ 0.2 |
| AANL | ≤ 0.2 |
| GEYS | ≤ 0.2 |
| QVLY | ≤ 0.2 |
| WTEY | ≤ 0.2 |
| NRHR | ≤ 0.2 |
| GHTG | ≤ 0.2 |
| QWRL | ≤ 0.2 |
| QKDL | ≤ 0.2 |
| HFQC | ≤ 0.2 |
| MAPA | ≤ 0.2 |
| YSSF | ≤ 0.2 |
| FVLS | ≤ 0.2 |
| NLGA | ≤ 0.2 |
| KTKP | ≤ 0.2 |
| PPEF | ≤ 0.2 |
| RRLR | 0.702 |

| Variant | one-hybrid fitness for binding NBS DNA |
| --- | --- |
| DECI | ≤ 0.2 |
| WAYA | ≤ 0.2 |
| ASFC | ≤ 0.2 |
| GQSC | ≤ 0.2 |
| TSMC | ≤ 0.2 |
| RCPT | ≤ 0.2 |
| CRYV | ≤ 0.2 |
| SIPA | ≤ 0.2 |
| YWNG | ≤ 0.2 |
| QKTQ | ≤ 0.2 |
| ADPT | ≤ 0.2 |
| WFCS | ≤ 0.2 |
| HCCS | ≤ 0.2 |
| HIPW | ≤ 0.2 |
| KKTD | ≤ 0.2 |
| SAPM | ≤ 0.2 |
| SVTQ | ≤ 0.2 |
| WGPG | ≤ 0.2 |
| TTTL | ≤ 0.2 |
| WTAY | ≤ 0.2 |
| QPTI | ≤ 0.2 |
| YNVP | ≤ 0.2 |
| PGCP | ≤ 0.2 |
| KCER | ≤ 0.2 |

| Variant | one-hybrid fitness for binding NBS DNA |
| --- | --- |
| RSGW | ≤ 0.2 |
| MALK | ≤ 0.2 |
| SSNS | ≤ 0.2 |
| SAFC | ≤ 0.2 |
| VWAI | ≤ 0.2 |
| HLFT | ≤ 0.2 |
| YHQE | ≤ 0.2 |
| TASP | ≤ 0.2 |
| PVFC | ≤ 0.2 |
| PQLL | ≤ 0.2 |
| MSDF | ≤ 0.2 |
| QHMW | ≤ 0.2 |
| LSWY | ≤ 0.2 |
| NVAT | ≤ 0.2 |
| MCRV | ≤ 0.2 |
| RNEQ | ≤ 0.2 |
| SMTP | ≤ 0.2 |
| LTMC | ≤ 0.2 |
| PCPF | ≤ 0.2 |
| VSAT | ≤ 0.2 |
| MHDC | ≤ 0.2 |
| RTVF | ≤ 0.2 |
| DPPA | ≤ 0.2 |
| RALG | ≤ 0.2 |

| Variant | one-hybrid fitness for binding NBS DNA |
| --- | --- |
| RPQI | ≤ 0.2 |
| NQPA | ≤ 0.2 |
| DPDC | ≤ 0.2 |
| PRLQ | ≤ 0.2 |
| NQNY | ≤ 0.2 |
| AYIY | ≤ 0.2 |
| HSTF | ≤ 0.2 |
| SLRK | ≤ 0.2 |
| DWFI | ≤ 0.2 |
| VMSD | ≤ 0.2 |
| WSDT | ≤ 0.2 |
| VFTD | ≤ 0.2 |
| YITR | ≤ 0.2 |
| TNRL | ≤ 0.2 |
| KPST | ≤ 0.2 |
| RVPT | ≤ 0.2 |
| TAED | ≤ 0.2 |
| VAKA | ≤ 0.2 |
| EVSW | ≤ 0.2 |
| PFST | ≤ 0.2 |
| AACV | ≤ 0.2 |
| MCHG | ≤ 0.2 |
| DVFL | ≤ 0.2 |
| IAGE | ≤ 0.2 |

| Variant | one-hybrid fitness for binding NBS DNA |
| --- | --- |
| SITF | ≤ 0.2 |
| SHLC | ≤ 0.2 |
| IASG | ≤ 0.2 |
| ARCY | ≤ 0.2 |
| KFRV | ≤ 0.2 |
| THVW | ≤ 0.2 |
| NPAW | ≤ 0.2 |
| GQET | ≤ 0.2 |
| MTNT | ≤ 0.2 |
| CFNA | ≤ 0.2 |
| RLEA | ≤ 0.2 |
| PGAY | ≤ 0.2 |
| YSVT | ≤ 0.2 |
| AFPA | ≤ 0.2 |
| HQAC | ≤ 0.2 |
| NPKH | ≤ 0.2 |
| MPHR | ≤ 0.2 |
| SMSC | ≤ 0.2 |
| QKGP | ≤ 0.2 |
| WMHG | ≤ 0.2 |
| LSLG | ≤ 0.2 |
| TKPI | ≤ 0.2 |
| HIRH | ≤ 0.2 |
| PLST | ≤ 0.2 |

| Variant | one-hybrid fitness for binding NBS DNA |
| --- | --- |
| RIQI | ≤ 0.2 |
| TSPL | ≤ 0.2 |
| ITGL | ≤ 0.2 |
| CNHS | ≤ 0.2 |
| KPEL | ≤ 0.2 |
| LSVE | ≤ 0.2 |
| PAHM | ≤ 0.2 |
| GFAR | ≤ 0.2 |
| FSGS | ≤ 0.2 |
| NLRD | ≤ 0.2 |
| CKNT | ≤ 0.2 |
| LRLQ | ≤ 0.2 |
| SYVF | ≤ 0.2 |
| RWIT | ≤ 0.2 |
| LPGS | ≤ 0.2 |
| YRYC | ≤ 0.2 |
| FSNT | ≤ 0.2 |
| PFRL | ≤ 0.2 |
| RWKV | ≤ 0.2 |
| TSAH | ≤ 0.2 |
| NDFG | ≤ 0.2 |
| QCKR | 1.08 |
| WPNS | ≤ 0.2 |
| SMLV | ≤ 0.2 |

| Variant | one-hybrid fitness for binding NBS DNA |
| --- | --- |
| LPPQ | ≤ 0.2 |
| MEDL | ≤ 0.2 |
| HKCY | ≤ 0.2 |
| SNAP | ≤ 0.2 |
| IPFS | ≤ 0.2 |
| MRGS | ≤ 0.2 |
| AKSH | ≤ 0.2 |
| FPSM | ≤ 0.2 |
| DMAY | ≤ 0.2 |
| QHDN | ≤ 0.2 |
| WEMC | ≤ 0.2 |
| KMTA | ≤ 0.2 |
| YIMT | ≤ 0.2 |
| MLRA | ≤ 0.2 |
| CLIC | ≤ 0.2 |
| FCAR | ≤ 0.2 |
| SKWT | ≤ 0.2 |
| KVVI | ≤ 0.2 |
